Assay results: PubChem BioAssay AID588342 (National Center for Advancing Translational Sciences (NCATS), 2011)
Screen size: about 360,000 compounds; about 25,000 (6.9%) were called active. This list was built around the results that the source calls inconclusive (neither active nor inactive); the mix of calls is not that of the screen. The call rests on the fitted dose curve; in most records, active means well fitted inhibition curve with a large enough effect; inconclusive means small, poorly fitted or top-dose-only effect; inactive means flat fitted curve, though single readings scatter. Potencies beside an inconclusive call are fits to weak or partial responses and may not hold up.
Further: nearly all actives have a fitted effect of over 55% in size.
Potency means the concentration at half of the fitted maximal effect; tags describe the fitted curve by direction and shape.

The compounds below were run against Luciferin 4-monooxygenase (Photinus pyralis) (UniProt P08659) (assay: qHTS profiling assay for firefly luciferase inhibitor/activator using purifed enzyme and Km concentrations of substrates (counterscreen for miR-21 project)). Details: purified FLuc, luminescence inhibition; series mostly up to 57.5 µM.
UniProt P08659, sequence (P08659 whole entry, looked up): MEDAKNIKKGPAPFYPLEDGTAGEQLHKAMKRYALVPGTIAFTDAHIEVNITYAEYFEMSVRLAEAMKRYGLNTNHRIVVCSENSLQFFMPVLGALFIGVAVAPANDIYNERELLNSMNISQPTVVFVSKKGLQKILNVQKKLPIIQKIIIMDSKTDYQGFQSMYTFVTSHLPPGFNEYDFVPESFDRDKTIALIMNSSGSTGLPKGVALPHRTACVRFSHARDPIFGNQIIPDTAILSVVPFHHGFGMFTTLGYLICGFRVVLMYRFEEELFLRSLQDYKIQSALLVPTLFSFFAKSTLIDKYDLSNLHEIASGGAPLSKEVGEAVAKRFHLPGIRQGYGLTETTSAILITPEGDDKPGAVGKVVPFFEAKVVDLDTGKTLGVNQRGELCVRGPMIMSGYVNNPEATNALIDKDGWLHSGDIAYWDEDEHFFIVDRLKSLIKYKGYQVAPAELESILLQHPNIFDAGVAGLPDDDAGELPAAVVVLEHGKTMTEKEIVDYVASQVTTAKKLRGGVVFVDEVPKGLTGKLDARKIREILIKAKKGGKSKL
Procedure, shortened: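 Biochemical qHTS of compounds, final roughly 60 µM downward over six points, against 10 nM purified firefly luciferase using Km concentrations of substrates (10 uM D-luciferin, 10 uM ATP) in Tris acetate pH 7.5 buffer; luminescence output.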
In the case of `CCC(C)c1ccc2oc(-c3ccc(NC(=O)c4ncn[nH]4)cc3)nc2c1` (stereo not drawn), the Potency was active: 2.69 µM. With `COc1ccc(C(=O)OC2CCN(c3ncc(C(F)(F)F)cc3Cl)CC2)cc1` the Potency was inconclusive: 30.1 µM [inhibitor, single point]. In the case of `Cc1ccc(S(=O)(=O)N2[C@@H](c3ccc(F)cc3)C(C(=O)O)=CC[C@H]2c2cccs2)cc1`, the Potency was “inactive”. In the case of `Cc1ccc2cc(C)c(N3CCC(C)CC3)nc2c1`, the Potency was inconclusive: 16.9 µM [inhibitor, partial curve, poor fit]. In the case of `C/C(N)=C(/C#N)C(=O)CSc1nnnn1-c1ccc(C)cc1`, the Potency was inconclusive: 30.1 µM [inhibitor, partial curve, poor fit]. For `Cc1cccc(C(=O)OCc2cc(=O)oc3c(C)c(C)ccc23)c1O`, the Potency was “inactive”. In the case of `COCCOC(=O)N/C=C\c1nc2ccccc2c(=O)[nH]1`, the Potency was inconclusive: 37.9 µM [inhibitor, partial curve, poor fit]. For `C=CCc1c(O)c(CC)cc2c(C)cc(=O)oc12`, the Potency was “inactive”. For `Cc1ccc(C(=O)NCCSC(C)(C)C)cc1[N+](=O)[O-]`, the Potency was inconclusive: 23.9 µM [inhibitor, single point]. With `Cc1ccc(NCc2ccccc2-c2nnc(-c3ccccc3Cl)o2)c(C)c1` the Potency was inconclusive: 6.01 µM [inhibitor, partial curve]. In the case of `Cc1ccc(-n2cccn2)cc1`, the Potency was inconclusive: 23.9 µM [inhibitor, partial curve, poor fit]. `CC1(C)Cc2c(sc(NC(=O)C(=O)N3CCCC3)c2C#N)CO1` was tested, and the Potency was inconclusive: 37.9 µM [inhibitor, partial curve, poor fit]. With `Fc1ccc(CO/N=C2\CCCc3nonc32)cc1` the Potency was inconclusive: 13.5 µM [inhibitor, partial curve, poor fit]. `COc1cc(NC(=O)c2ccccc2OCc2ccccc2)cc(OC)c1OC` was tested, and the Potency was “inactive”. `COc1ccc(N2CC(C(=O)Nc3cc(C)ccn3)CC2=O)cc1` (stereo not drawn) was tested, and the Potency was “inactive”. For `CCCCn1nnnc1SCC(=O)c1ccc(C)c(C)c1`, the Potency was inconclusive: 26.9 µM [inhibitor, single point]. With `COc1ccc(C(=O)COC(=O)c2cncc(Br)c2)cc1` the Potency was inconclusive: 13.5 µM [inhibitor, partial curve]. In the case of `CC(C)(C)OC(=O)N1CCC(c2c(C(=O)NCc3cccs3)cnn2-c2ccc(F)cc2F)CC1`, the Potency was “inactive”. With `CCC(=O)Nc1cccc(-c2nnc(-c3cccc(NC(=O)CC)c3)o2)c1` the Potency was inconclusive: 16.9 µM [inhibitor, partial curve]. In the case of `CCCSc1nsc(NC(=O)Nc2ccc(F)cc2F)n1`, the Potency was inconclusive: 30.1 µM [inhibitor, partial curve]. In the case of `Oc1cccc2ccc(/C=C/c3ccccc3Cl)nc12`, the Potency was active: 1.9 µM. With `COc1cccc2cc(C(=O)NCc3ccccn3)c(=O)oc12` the Potency was active: 10.7 µM. For `COCCN1CCc2nc(SCC(=O)Nc3ccc(Br)cc3)[nH]c(=O)c2C1`, the Potency was “inactive”. For `CC(=O)Nc1ccc(Nc2nnc(-c3ccc(C)c(S(=O)(=O)NCC4CCCO4)c3)c3ccccc23)cc1` (stereo not drawn), the Potency was inconclusive: 26.9 µM [inhibitor, single point]. In the case of `CCC(CC)NC(=O)CON=C1c2ccccc2-c2ccccc21`, the Potency was “inactive”. For `O=C1OC(/C=C/c2ccccc2)=NC/1=C/C=C/c1ccccc1`, the Potency was inconclusive: 37.9 µM [inhibitor, partial curve, poor fit]. In the case of `Cc1ccccc1N=CC1=C(O)c2ccccc2C1=O`, the Potency was active: 0.135 µM. In the case of `Cc1ccc(SCC(=O)N2N=CCC2c2ccccc2)cc1` (stereo not drawn), the Potency was inconclusive: 42.6 µM [inhibitor, partial curve, poor fit]. With `CN(C)c1oc(/C=C/c2ccc(F)cc2)nc1C#N` the Potency was inconclusive: 10.7 µM [inhibitor, partial curve, poor fit]. With `O=c1c(-c2ccc(Cl)cc2)c[nH]n1-c1ccccc1` the Potency was active: 9.53 µM. In the case of `O=C(/C=C/c1ccccc1)Nc1ccc(C(=O)N2CCCCC2)cc1`, the Potency was inconclusive: 16.9 µM [inhibitor, partial curve, poor fit]. With `Cc1ccc(NC(=O)c2cc(-c3ccc(C)o3)nc3ccccc23)cc1` the Potency was inconclusive: 6.01 µM [inhibitor, partial curve]. `Cc1ccc(C(=O)Nc2ccc3c(c2)C(=O)NC3=O)cc1` was tested, and the Potency was inconclusive: 3.38 µM [inhibitor, partial curve, poor fit]. With `Cc1ccc(C(=O)Nc2nc(C)c(C(=O)Nc3ccc4c(c3)CCC4)s2)cc1` the Potency was active: 15.1 µM. For `CSc1ccc(-c2nc3ncccn3c2Nc2ccc(C)c(C)c2)cc1`, the Potency was “inactive”. With `Nc1cc(=O)nc(SCC(=O)Nc2cccc(Cl)c2)n1CCc1ccccc1` the Potency was “inactive”. In the case of `C/C(=N/NC(=O)c1ccc(-c2ccccc2)cc1)c1cc(O)cc(O)c1`, the Potency was inconclusive: 23.9 µM [inhibitor, partial curve]. In the case of `Nc1ccc2nc(N3CCOCC3)sc2c1`, the Potency was inconclusive: 26.9 µM [inhibitor, single point]. For `CCc1ccc(-c2cc(C(=O)Nc3c(C)n(C)n(-c4ccccc4)c3=O)c3ccccc3n2)s1`, the Potency was active: 12 µM. For `COC(=O)c1ccc(NC(=O)CSc2ccccn2)cc1`, the Potency was inconclusive: 37.9 µM [inhibitor, single point]. With `COc1ccccc1/C=C/C(=O)c1ccc(Cl)cc1` the Potency was active: 7.57 µM. For `CCc1ccc(NC(=O)c2ccc(-n3cncn3)c([N+](=O)[O-])c2)cc1`, the Potency was inconclusive: 23.9 µM [inhibitor, single point]. `O=C(O)c1cccc(NC(=O)c2cccc(S(=O)(=O)N3CCCCC3)c2)c1` was tested, and the Potency was active: 6.01 µM. For `O=C(N/N=C/c1ccccn1)c1ccc2nc[nH]c2c1`, the Potency was inconclusive: 37.9 µM [inhibitor, single point]. For `CCc1ccc(NC(=O)c2cnn(-c3ccccc3)c2C2CCNCC2)cc1`, the Potency was “inactive”. In the case of `Cc1ccc(C(=O)/C=C/c2ccc(Br)cc2)o1`, the Potency was active: 2.39 µM. For `COCCCn1c(=O)c2ccccc2n2c(=S)[nH]nc12`, the Potency was “inactive”. With `Cc1ccc(C)c(NC(=S)NNC(=S)Nc2ccc(C(C)C)cc2)c1` the Potency was inconclusive: 37.9 µM [inhibitor, single point].
